First the molecules themselves.
B1: tRNA (parent)
chain: CUCUCGGUAGCCAAGUUGGUUUAAGGCGCAAGACUUUAAUUUAUCACUACGAAAUCUUGAGAUCGGGCGUUCGACUCGCCCCCGGGAGAUUUUUUCCUCGAGCAA

Variants at the floor of the assay are shown more often than the library holds them.

In the data set the parent is B1. As to the kind of experiment: nonsense suppression (GFP-seq) (ratio to wild type); higher = more function; SUP4oc tRNA, yeast GFP reporter sort-seq. The gist of the method:
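Nonsense suppression (GFPSEQ) is the median GFP/RFP ratio of each sorting bin, weighted by the variant's estimated share of cells in that bin and expressed relative to the unmutated parent tRNA. Yeast strains carried genome-integrated variants of an ochre-suppressor tRNA from a library with ~3% random mutations, plus a galactose-driven GFP ochre reporter and RFP, and were grown in raffinose/galactose medium containing 80 mg/L adenine. Cells were sorted into GFP/RFP bins, each bin was Illumina-sequenced (phred ≥30), and variants were kept only with ≥100 reads and ≥30 cells.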
Turning to CUCUCGGUAGCCAAGUUGGUUUAAGGCGCAAGACUUUAAUUUAUCACUACGAAGUCUUGAGAUCGGGCUUUCGACUCGCCCCCGGGAGAUUUUUUCCUCGAGCAA [A54G G69U], the nonsense suppression was ≤ 0.026.

On to CUCUCGGUAGCCAUGUUGGUUUAAGGCUCAAGACUUUAAUUUAUCACUACGAAAUCUUGAGAUCGGGCGUUCGACUCGCCCCCGGGAGAUUUUUUCCUCGAGCAA [A14U G28U], for which the nonsense suppression is ≤ 0.026.

Regarding AUCUCGGUAGCCAAGUUGGUUUCAGGCGCAAGACUUUAAUUUAUCACUACGAAAUCUUGAGAUCGGGCGUUCGACUCGCCCCCGGGAAAUUUUUUCCUCGAGCAA [C1A A23C G88A], the nonsense suppression was ≤ 0.026.

As to CUCUCGGUCGCUAAGUUGGUUUAAGUCGCAAGACUUUAAUUUAUCACUACGAAAUGUUGAGAUCGGGCGUUCGACUCGCCCCCGGGAGAUUUUUUCCUCGAGCAA [A9C C12U G26U C56G], the nonsense suppression is ≤ 0.026.

Consider CUCUUGGUAGCCAAGUUGGUUUAAGGCGCAAGACUUUAAUUUAUCACUACGAAAUCUUGAGAUCGGGAGUUCGACCCGCCCCCGGGAGAUUUUUUCCUCGAGCAA [C5U C68A U76C], for which the nonsense suppression was ≤ 0.026.

For the variant CUCUCGGUAGCCAAGUGGGUUUAAGGCGCAAGACUUUAAUUUAUCACUACGAAAUCUUGAGAUCGGGCGUUCUACUCGCCCCCGGGAGAUUUUUUCCUCGAGCAA [U17G G73U], the nonsense suppression is ≤ 0.026.

For the variant CUCUCGGUAGCCAAUUUGGUUUAAGGCGCAAGACUUUAAUUUAUCACUACGAAAUCUUGAGAUCGGCCGUUCUACUCGCCCCCGGGAGAUUUUUUCCUCGAGCAA [G15U G67C G73U], the nonsense suppression is ≤ 0.026.

For the variant CUCUCGGUAGCCAACUUGGUUUGAGGCGCAAGACUUUAAUUUAUCACUACGAAAUCUUUAGAUCGUGCGUUCGACUCGCCCCCGGGAGAUUUUUUCCUCGAGCAA [G15C A23G G59U G66U], the nonsense suppression was ≤ 0.026.

In the case of CUCUCGGUAGCCAAGUUGGUUUAAGGCGCUAGAUUUUAAUUUAUCACUACGAAAUCUUGAGAUCGGGCGUUCGAAUCGCCCCCGGGAGAUUUUUUCCUCGAGCAA [A30U C34U C75A], the nonsense suppression is ≤ 0.026.

For the variant CUCUCGGUAGCCAAGUUGGUUUGAGGCGCAAGACUUUAAUUUAUCACUACGAAAUCUUGAGAUCGGGCGUUCGUCUCGCCCCCGGGACAUUUUUUCCUCGAGCAA [A23G A74U G88C], the nonsense suppression is ≤ 0.026.

Turning to CUUUCGGUAGCCGAGUUGGUUUAAGGCGAAAGAAUUUAAUUUAUCACUACGAAAUCUUGAGAUCGGGCGUUCGACUCGCCCCCGGGAGAUUUUUUCCUCGAGCAA [C3U A13G C29A C34A], the nonsense suppression was ≤ 0.026.

Regarding CUCUCGGUAGGCAAGUUGGUUUAAGGCGCAAGAAUUUAAUUUAUCACUACGAAAUCUUGAGAACCGGCGUUCGACUCGCCCCCGGGAGAUUUUUUCCUCGAGCAA [C11G C34A U63A G65C], the nonsense suppression is ≤ 0.026.

Regarding CUCUCGGAAGCCAAGUUGGUUUAAGGGGCAAGACUUUAAUUUAUCACUACGAAGUCUUGAGAUCGGGCGUUCGACUCGUCCCCGGGAGAUUUUUUCCUCGAGCAA [U8A C27G A54G C79U], the nonsense suppression is ≤ 0.026.

Regarding AUCUCGGAAGCGAAGUUGGUUUAAGGCGCAAGACUUUAAUUUAUCACUACGAAAGCUUGAGAUCGGGCGUUCGACUCGCCCCCGGGAGAUUUUUUCCUCGAGCAA [C1A U8A C12G U55G], the nonsense suppression is ≤ 0.026.

As to CUCUCGGUAGCCAAGUUGGUUUAAGACGCAAGACUUUAAUUUAUCACUACGAAAUCUUCAGAUCGGGCGUUUGACUCGCCCCCGGGAGAUUUUUUCCUCGAGCAA [G26A G59C C72U], the nonsense suppression was ≤ 0.026.

In the case of CUCUCGGUAGACAAGUUGGUUUAAGGCGCAAGACUUUAAUUUAUCACUACGAAAUCUUGAGAUCGGGUGUUCGACUCGCCCCCGAGAGAUUUUUUCCUCGAGCAA [C11A C68U G85A], the nonsense suppression is ≤ 0.026.

For the variant CUCUCGGUAGCGAAGUUGGUUUAAGGCGCAAGACUUUAAUUUAUCACUACGAAAUCUGGAGAUCGGGCGGUCGACUCGCCCCCGGGAGAUUUUUUCCUCGAGCAA [C12G U58G U70G], the nonsense suppression was ≤ 0.026.

Consider CUCUCGGUAGCCAAGUUGGUCUAAGGCGCAAGACUUUAAUUUAUCACUACGAACUCUUGAGAGCGGGCGUUCGACUCGCCCUCGGGAGAUUUUUUCCUCGAGCAA [U21C A54C U63G C82U], for which the nonsense suppression is ≤ 0.026.

Turning to CUCUCGGUCGCCAAGUUGGUUUAGGGUGCAAGACUUUAAUUUAUCACUACGAAAUCUUGAGAUCGCGCGUUCGACUCGCCCCCGGGAGAUUUUUUCCUCGAGCAA [A9C A24G C27U G66C], the nonsense suppression was ≤ 0.026.

As for CUGUCGGUAGCCAAGUUGGUUUAAGGCGCAAGACUUUAAUUUAUCACUACGAAAUCUUGAGAUCGGGCGUUCGGCUCGCCCCCGGGAGAUUUUUUCCUCGAGCAA [C3G A74G], the nonsense suppression was ≤ 0.026.

With CUCUCGGUAGCUAAGUUGGUUUAAGGCGCAAGACUUUAAUUUAUCACUACGAAAUCUUGAGACCGGGCGUUCGACUCACCCCCGGGAGAUUUUUUCCUCGAGCAA [C12U U63C G78A], the nonsense suppression is ≤ 0.026.

Regarding CUCUCGGUAGCCAAGUUGGUUUAAGGCGCAAAACUUUAAUUUAUCACUACGAAAUCGUGAGAUCGGGCGUUCAACUCGCCCCCGGGAGAUUUUUUCCUCGAGCAA [G32A U57G G73A], the nonsense suppression was ≤ 0.026.

On to CUCUCGGUAGCCAAGUUGGUUUAGGGCGCAAGACUUUAAUUUAUCACUACGAAAUCUUGAGAUCGGGCGUUCGCCUCGCCCCCGGGAGAUUUUUUCCUCGAGCAA [A24G A74C], for which the nonsense suppression is ≤ 0.026.

On to CUCUCGGUAGCCAAGUUGGUUUAAGGCGCAUGACUUUAAUUUAUCACUACGAAAUCUUGAGAUCGGGAGUUCGACUCGCCCCCGGGAGAUUUUUUCCUCGAGCAA [A31U C68A], for which the nonsense suppression was ≤ 0.026.

As to CUCUCGGUAGGCAAGUUGGUUUAAAGCGCAAGACUUUAAUUUAUCACUACGAAAUCUUGAGAUCGGGCGUUCGACUCGCCCCCGGGAGAUUUUUUCCUCGAGCAA [C11G G25A], the nonsense suppression was ≤ 0.026.

Consider CUCUCGGUAGCCAAGUAGGUUUAAGGAGCAAGACUUUAAUUUAUCACUACGAAAUCUUGAGAUCGGGCGUUCGACUCGCCCCGGGGUGAUUUUUUCCUCGAGCAA [U17A C27A C83G A87U], for which the nonsense suppression is ≤ 0.026.

CUCUCGGUAGCCAAGUUGGUUUAAGGCGCAAGACUUUAAUUUAUCACUACGAAAUCUUGAGAUCGGGCGUUCGGCGCGCCCCCGGUAGAUUUUUUCCUCGAGCAA [A74G U76G G86U]: the nonsense suppression is ≤ 0.026.

(Values after the RNAGym collection of RNA variant scans (doi:10.1101/gad.245936.114).)
